# Measurements published in PubChem BioAssay AID588342 (National Center for Advancing Translational Sciences (NCATS), 2011).
# Among all 360,000 compounds or so, about 25,000 (6.9%) were called active. This list was built around the results that the source calls inconclusive (neither active nor inactive); the mix of calls is not that of the screen. The call rests on the fitted dose curve; in most records, active means well fitted inhibition curve with a large enough effect; inconclusive means small, poorly fitted or top-dose-only effect; inactive means flat fitted curve, though single readings scatter. Potencies beside an inconclusive call are fits to weak or partial responses and may not hold up.
# Biological target: Luciferin 4-monooxygenase (Photinus pyralis) (UniProt P08659)
# Sequence of UniProt P08659 (P08659 whole entry, looked up): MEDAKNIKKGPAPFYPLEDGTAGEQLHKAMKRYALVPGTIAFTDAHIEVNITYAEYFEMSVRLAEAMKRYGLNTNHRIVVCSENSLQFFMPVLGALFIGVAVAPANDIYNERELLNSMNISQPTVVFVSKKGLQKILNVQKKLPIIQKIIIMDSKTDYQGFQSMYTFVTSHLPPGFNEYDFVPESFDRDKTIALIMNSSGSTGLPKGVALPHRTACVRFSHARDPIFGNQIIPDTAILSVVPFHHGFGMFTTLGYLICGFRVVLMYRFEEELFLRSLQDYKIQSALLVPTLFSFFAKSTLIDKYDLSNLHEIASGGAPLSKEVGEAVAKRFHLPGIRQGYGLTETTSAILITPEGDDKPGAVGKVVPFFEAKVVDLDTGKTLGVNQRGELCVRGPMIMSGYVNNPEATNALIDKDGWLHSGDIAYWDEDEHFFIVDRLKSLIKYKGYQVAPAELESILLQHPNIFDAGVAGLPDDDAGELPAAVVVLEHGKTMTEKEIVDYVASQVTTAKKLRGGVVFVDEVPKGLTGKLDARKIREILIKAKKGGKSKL
# Assay: qHTS profiling assay for firefly luciferase inhibitor/activator using purifed enzyme and Km concentrations of substrates (counterscreen for miR-21 project); further: nearly all actives have a fitted effect of over 55% in size;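 on activity change, negative = inhibition: plate controls were vehicle for no effect and reference inhibitor for full effect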
# Conditions: purified FLuc, luminescence inhibition; activity change, negative = inhibition: at 57.5 µM (top of the series)
# How it was run: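 Biochemical qHTS of compounds, final roughly 60 µM downward over six points, against 10 nM purified firefly luciferase using Km concentrations of substrates (10 uM D-luciferin, 10 uM ATP) in Tris acetate pH 7.5 buffer; luminescence output.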
# Potency means the concentration at half of the fitted maximal effect; tags describe the fitted curve by direction and shape.
SMILES,Potency,"activity change, negative = inhibition"
COc1ccc(NC(=S)Nc2ccccn2)c(OC)c1,"inconclusive: 9.53 µM [inhibitor, partial curve]",–
O=C(NC(=S)N1CCc2ccccc21)c1ccc(Br)o1,"inconclusive: 37.9 µM [inhibitor, partial curve, poor fit]",–
O=S(=O)(Cc1ccccc1)N=Nc1c(O)[nH]c2ccc(Br)cc12,–,inactive: 6.45%
COc1ccc([C@H]2CC(=O)C=C(c3ccc4ccn(C)c4c3)C2)cc1,"inconclusive: 20 µM [inhibitor, partial curve, poor fit]",–
O=C(Nc1cccc(Cl)c1)Nc1csc([N+](=O)[O-])c1,active: 19 µM,–
CCOC(=O)c1sc(=NC(=O)c2cc(OC)c(OC)c(OC)c2)n(C)c1C,–,inactive: -0.3%
O=C(CCCN1C(=O)c2cccc3cccc(c23)C1=O)N1CCN(c2ccccc2)CC1,–,inactive: -2.18%
O=C1Nc2ccccc2/C1=N\N=C\C1=C(N2CCOCC2)C(=C\c2ccccc2)/CC1,"inconclusive: 23.9 µM [inhibitor, partial curve, poor fit]",–
C=CCn1c(Cc2csc(N)n2)nnc1SCC(=O)Nc1ccc(C(=O)OCC)cc1,"inconclusive: 37.9 µM [inhibitor, single point]",–
COc1ccc2nc(NC(=O)Nc3cccc4ccccc34)sc2c1,"inconclusive: 1.51 µM [inhibitor, full curve, poor fit]",–
N/C(=N\OC(=O)CCC1CCCC1)c1ccc([N+](=O)[O-])cc1,"inconclusive: 26.9 µM [inhibitor, partial curve, poor fit]",–
COc1ccc(-c2noc(CN(C(=O)C(C)(C)C)C(C)C)n2)cc1,"inconclusive: 21.3 µM [inhibitor, single point]",–
CC(NC(=O)CCc1nnc(Cc2cccc(C(F)(F)F)c2)o1)C1CC1 (configuration not stated),active: 26.9 µM,–
O=C(N/N=C/c1ccc(Cl)cc1)c1n[nH]c2c1CCCC2,"inconclusive: 2.13 µM [inhibitor, full curve]",–
Cc1ccc(N2C(=O)C3C4C=CC(CC4)C3C2=O)cc1Cl (configuration not stated),"inconclusive: 9.53 µM [inhibitor, partial curve]",–
COc1cc(CN2CCCCC2)ccc1OCc1ccccc1,"inconclusive: 26.9 µM [inhibitor, single point]",–
CCOC(=O)C1=C(COC(=O)c2ccccc2OC)NC(=O)NC1C (configuration not stated),"inconclusive: 33.8 µM [inhibitor, single point]",–
CCOC(=O)CSC1=NC(=O)/C(=C\c2ccc(Cl)cc2)S1,active: 10.7 µM,–
Cc1ccc(Cn2cc(/C=C/C(=O)O)c(-c3ccccc3)n2)cc1,"inconclusive: 21.3 µM [inhibitor, single point]",–
Clc1ccccc1CSc1ncn(-c2ccccc2)n1,active: 7.57 µM,–
O=C(CCCn1c(=O)oc2ccccc21)Nc1ccccc1,"inconclusive: 26.9 µM [inhibitor, single point]",–
O=C(Nc1cccnc1Cl)c1cc(-c2ccco2)on1,active: 5.36 µM,–
Cc1cccc(NC(=S)NNC(=O)c2ccc(Br)o2)c1,"inconclusive: 37.9 µM [inhibitor, partial curve, poor fit]",–
O=C(CC(c1ccccc1O)N1CCCCC1)N1CCCCC1 (configuration not stated),–,inactive: -5.72%

SMILES,Potency,"activity change, negative = inhibition"
C=CCSC1=N/C(=C\c2ccc3c(c2)OCO3)C(=O)S1,"inconclusive: 19 µM [inhibitor, single point]",–
CCOC(=O)N1C(=O)[C@@](c2ccc(Cl)cc2)(C(C)C)N1C(=O)OCC,–,inactive: 3.37%
Cc1ccc(NC(=O)c2ccc(CSc3nccc(C)n3)cc2)cc1,"inconclusive: 9.53 µM [inhibitor, partial curve]",–
Cc1ccc(CNC(=O)[C@H](C)N2C(=O)N3CCc4c([nH]c5ccccc45)[C@@]3(C)C2=O)cc1,–,inactive: 9.69%
Cc1nc(N2CCOCC2)c2c(C(=O)N3CCN(c4cccc(C)c4C)CC3)c(C)oc2n1,–,inactive: -0.133%
Cc1ccc(C)c(OCC(=O)Nc2ccc3c(c2)OCO3)c1C,"inconclusive: 16.9 µM [inhibitor, partial curve, poor fit]",–
Cc1cc(C)c(C#N)c(SCc2nnc(-c3ccccc3)o2)n1,active: 3.01 µM,–
COCCn1c(C)cc(C(=O)COC(=O)/C=C/c2cccc(OC)c2)c1C,"inconclusive: 26.9 µM [inhibitor, single point]",–
COc1ccc2c(c1)nc(SCC(C)O)n2C (configuration not stated),"inconclusive: 26.9 µM [inhibitor, partial curve, poor fit]",–
COc1ccc(N2C(=O)/C(=C\c3ccco3)N=C2SCC(=O)N(C(C)C)C(C)C)cc1Cl,–,inactive: 2.94%
COc1ccc(N=Nc2cc(C)c(O)c(CN3CCCCC3)c2)cc1,"inconclusive: 33.8 µM [inhibitor, single point]",–
CC(C)(C)c1ccc(OCCSc2nc3ccccc3n2CC(=O)O)cc1,"inconclusive: 26.9 µM [inhibitor, single point]",–
O=C(Cc1ccccc1)Nc1cccc(C(=O)O)c1O,"inconclusive: 26.9 µM [inhibitor, single point]",–
O=C(CCN1C(=O)/C(=C/c2ccccc2F)SC1=S)NC1C=CS(=O)(=O)C1 (configuration not stated),–,inactive: -2.41%
CC1(C)CC(=O)c2c(O)cc(OCC(=O)Nc3ccc(S(N)(=O)=O)cc3)cc2O1,–,inactive: -10.5%
CCc1nnc(N/N=C/c2ccc(N3CCC(C)CC3)c([N+](=O)[O-])c2)n1N,"inconclusive: 23.9 µM [inhibitor, partial curve, poor fit]",–
CCOC(=O)c1cn2nc(Oc3ccc(C)cc3)ccc2n1,"inconclusive: 30.1 µM [inhibitor, single point]",–
N#Cc1ccsc1NC(=O)CSc1nnnn1-c1ccc(O)cc1,"inconclusive: 21.3 µM [inhibitor, single point]",–
COc1ccc(CN(C)C(=O)c2ccc(COc3ccccc3)cc2)c(OC)c1,–,inactive: 3.27%
COc1ccc(-c2nnc(-c3ccc(N)cc3)o2)cc1,active: 3.38 µM,–
COc1ccccc1NC(=O)c1cc(Cl)nnc1Cl,–,inactive: -4.24%
CSc1ccccc1NC(=O)CN(C)C(=O)Cc1c(F)cccc1Cl,–,inactive: 0.73%
COc1ccc(-c2cc(C(=O)N3CCN(c4ccccc4OC)CC3)no2)cc1,"inconclusive: 21.3 µM [inhibitor, single point]",–
Cc1cc(-c2ccc(S(=O)(=O)Nc3ccc(Br)c(C)c3)s2)on1,"inconclusive: 15.1 µM [inhibitor, partial curve]",–

SMILES,Potency,"activity change, negative = inhibition"
COC(=O)c1cccc(NC(=O)CCc2ccccc2)c1,"inconclusive: 26.9 µM [inhibitor, single point]",–
CCOC(=O)C1CCCN(C2=NC(=O)/C(=C/c3ccc(OC)cc3OC)S2)C1 (configuration not stated),"inconclusive: 33.8 µM [inhibitor, partial curve, poor fit]",–
CCN1C(=O)N(c2ccc(Cl)cc2)C(C)=CC1(C)C,"inconclusive: 26.9 µM [inhibitor, partial curve]",–
Cc1cc(Cl)c2oc(C(=O)N3CCN(C(=O)c4ccco4)CC3)c(C)c2c1,active: 10.7 µM,–
Cc1oc2ccc(O)c(CN3CCCC3)c2c1C(=O)Nc1cccc(Cl)c1C,–,inactive: -1.8%
CCOc1ccc(C(=O)NCC(=O)N2CCN(C/C=C/c3ccccc3)CC2)cc1OCC,"inconclusive: 3.01 µM [inhibitor, partial curve, poor fit]",–
O=C(NC(=O)c1ccccc1)Nc1ccc(-c2cnco2)cc1,"inconclusive: 8.49 µM [inhibitor, partial curve, poor fit]",–
O=C(/C=C/c1ccc2c(c1)OCO2)NCCSCc1ccc(Cl)cc1,"inconclusive: 21.3 µM [inhibitor, partial curve, poor fit]",–
COc1ccccc1NC(CC(=O)c1ccccc1)C(=O)OCC(=O)c1ccc(C)cc1 (configuration not stated),active: 3.38 µM,–
O=C(Nc1ccc2c(c1)OCCO2)C1CCN(c2ncccn2)CC1,active: 15.1 µM,–
Cc1cccc(NC(=O)c2ccc(N(C)C3CCCCC3)c([N+](=O)[O-])c2)n1,active: 10.7 µM,–
COc1ccc(C(=O)/C=C/C(=O)N(CC(=O)NC2CCCCC2)CC2CCCO2)c(O)c1 (configuration not stated),"inconclusive: 12 µM [inhibitor, partial curve, poor fit]",–
CCCc1c(C)nc2c(Br)cccc2c1Cl,"inconclusive: 37.9 µM [inhibitor, partial curve, poor fit]",–
Cc1ccc(C(=O)NCCc2sc(C)nc2C)cc1,"inconclusive: 21.3 µM [inhibitor, single point]",–
COC(=O)c1ccccc1NC(=O)CSc1nnc(-c2ccc(C)cc2)o1,"inconclusive: 26.9 µM [inhibitor, single point]",–
CC(C)OC(=O)CSc1nc2c(cc1C#N)CCCCC2,–,inactive: -1.55%
CCc1ccc(NC(=O)c2cc3sc(Cl)cc3n2C)cc1,active: 5.36 µM,–
Cc1nc(N2CCCCC2)c2c(-c3cccs3)csc2n1,"inconclusive: 16.9 µM [inhibitor, partial curve]",–
COc1ccc2c(c1)c(/C=N/Nc1ccc(C(=O)O)cc1)c(C)n2C,active: 4.78 µM,–
O=C(Oc1ccc(F)c(F)c1)c1ccc2c(=O)n3c(nc2c1)CCC3,"inconclusive: 26.9 µM [inhibitor, single point]",–
Cc1ccc(N=C2C(=O)Nc3ccccc32)cc1C,"inconclusive: 33.8 µM [inhibitor, partial curve, poor fit]",–
O=C(Nc1ccc(CN2CCOCC2)cc1)c1ccc(Br)o1,active: 19 µM,–
Cc1cccc(N2CCN(C(=O)C3CCN(S(=O)(=O)c4cccs4)CC3)CC2)c1C,–,inactive: 1.71%
O=C(CSc1ccc(Cl)cc1)Nc1ccccc1N1CCN(C(=O)c2ccc(Cl)cc2)CC1,–,inactive: -0.578%
